Reference: patent US20260256712A1, “COMPOUNDS FOR INHIBITING GRAM-POSITIVE BACTERIA” (priority 2022, published 2026)

tested on: B. subtilis 1S-75; assay: Zone inhibition assay (ZIA), B. subtilis; type: cell-based, Bacillus subtilis; set-up: key: no halo NA; *: one; **: two; ***: three; ****: four; *****: five stars corresponding to the largest halo; settings: filter disk with 30 nmoles compound; control disks 100 μg carbenicillin or 50 μg ampicillin; overnight 30° C.

| Structure (SMILES) | size of halo, B. subtilis |
| --- | --- |
| Oc1ccc2ccccc2c1SSc1c(O)ccc2ccccc12 [IPA-3] | ** |
| CC[C@@H]1Cc2cc(O)ccc2C2=C1c1ccc(O)cc1C[C@H]2CC [RR-THC, (R,R)-tetrahydrochrysene] | *** |
| CC1(C)S[C@@H]2[C@H](NC(=O)[C@H](N)c3ccccc3)C(=O)N2[C@H]1C(=O)O [ampicillin] | ***** |
| CC1(C)S[C@@H]2[C@H](NC(=O)C(C(=O)O)c3ccccc3)C(=O)N2[C@H]1C(=O)O (some centres unmarked) [carbenicillin] | **** |
| C[C@H]1c2cccc(O)c2C(=O)C2=C(O)[C@]3(O)C(=O)C(C(N)=O)=C(O)[C@@H](N(C)C)[C@@H]3[C@@H](O)[C@@H]21 [doxycycline] | ***** |
| Cc1cc2c(C(C)C)c(O)c(O)c(C=O)c2c(O)c1-c1c(C)cc2c(C(C)C)c(O)c(O)c(C=O)c2c1O [gossypol] | ** |
| CN(C)c1ccc(O)c2c1C[C@H]1C[C@H]3[C@H](N(C)C)C(O)=C(C(N)=O)C(=O)[C@@]3(O)C(O)=C1C2=O [minocycline] | ***** |
| C[n+]1cc2c3c(ccc2c2ccc4cc5c(cc4c21)OCO5)OCO3 [sanguinarine chloride] | **** |
